PubChem BioAssay AID686978 (National Center for Advancing Translational Sciences (NCATS), 2013)
The campaign covered roughly 420,000 compounds. About 64,000 (15%) were called active. The shares of active, inactive and inconclusive entries below differ from those in the screen. Calls come from the whole dose curve; as a rule, active = well fitted inhibition curve with a large enough effect; inconclusive = small, poorly fitted or top-dose-only effect; inactive = flat fitted curve, though single readings scatter. Potencies of inconclusive entries are left out as doubtful fits.

assay: qHTS for Inhibitors of human tyrosyl-DNA phosphodiesterase 1 (TDP1): qHTS in cells in absence of CPT; details: DT40 Tdp1-/- hTDP1 cells, no CPT, ATP luminescence, 48 h; series mostly up to 46.2 µM; note: nearly all actives have a fitted effect of over 55% in size
How it was run: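 Cells were dispensed at 400 per well, compounds added by pin tool, plates incubated ≥48 hr at 37 °C, then CellTiter-Glo added for 30 min at room temperature before luminescence reading. Line: DT40 Tdp1-/- complemented with hTDP1; camptothecin omitted.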
Potency is the fitted concentration of half-maximal effect; tags give direction and shape of the fitted curve.

Row | SMILES | Potency
1 | COc1ccccc1/C=N/NC(=O)c1cc2c(OC)c(OC)ccc2[nH]1 | active: 3.26 µM
2 | N#C/C(=C/c1ccc(F)cc1)c1nc(CCN2C(=O)c3ccccc3C2=O)cs1 | inconclusive [inhibitor, single point]
3 | CCOC(=O)c1cnc(SCC(=O)Nc2ccccc2C(=O)OC)nc1N | active: 23.1 µM
4 | COc1ccc(NC(=O)c2c(-c3ccccc3)c(-c3ccccc3)nn(C)c2=O)c(OC)c1 | inconclusive [inhibitor, single point]
5 | CC(=O)N1c2ccccc2C(=O)C1N1CCN(c2ccccc2)CC1 (stereo not drawn) | inconclusive [inhibitor, partial curve]
6 | CSc1ccc(CNC(=O)c2ccccc2NC(=O)c2nsc3ccccc23)cc1 | inconclusive [inhibitor, single point]
7 | CN(C)S(=O)(=O)c1cccc(NC(=O)CCc2nc3sc4c(c3c(=O)[nH]2)CCCC4)c1 | inconclusive [inhibitor, single point]
8 | CC1=C(C(=O)N2CCCC(N3CCN(c4ccccc4C)CC3)C2)OCCO1 (stereo not drawn) | inconclusive [inhibitor, single point]
9 | CC(=O)[C@@]1(O)[C@H](C)CC2C3CC=C4CC(OP(=O)(O)O)CC[C@]4(C)C3CC[C@@]21C (stereo partly drawn) | inconclusive [inhibitor, partial curve]
10 | CC(C)NC(=O)CSc1nnc(-c2ccc(F)cc2)c2ccccc12 | inactive
11 | CSc1ncccc1C(=O)OCC(=O)Nc1ccc(C)c(S(=O)(=O)N2CCOCC2)c1 | active: 13 µM
12 | CCCCCC(=O)Nc1ccc(S(=O)(=O)Nc2nccc(C)n2)cc1 | inactive
13 | COc1ccccc1OCCCOc1c(C)cc(C)cc1Br | inactive
14 | CCCCN(C(=O)CSCC(=O)Nc1ccc(C)cc1)c1c(N)n(CC(C)C)c(=O)[nH]c1=O | inactive
15 | O=C(Nc1ncc(Cc2ccccc2Cl)s1)c1ccc([N+](=O)[O-])cc1 | inconclusive [inhibitor, single point]
16 | COc1ccc2c(c1)[nH]c1c(=O)n(/N=C/c3ccc(OC)c(CN4CCCCC4)c3)cnc12 | inconclusive [inhibitor, single point]
17 | COc1cccc(-c2cc3nc(NCCCN(C)C)n(C)c(=O)c3s2)c1 | inconclusive [inhibitor, partial curve, poor fit]
18 | CCOc1ccc(NC(=S)N(CCc2c(C)[nH]c3ccc(C)cc23)Cc2ccco2)cc1 | inconclusive [inhibitor, single point]
